According to the supplement of paper PMC3334620:
The full ranking holds about 33,000 sequences; the median of “E-score (-0.5 to 0.5)” is about -0.012, and the highest 2% start at about 0.27. The list shows a part of the results.

Biological target: T1, Vhr1 (UniProt P40522)
T1 sequence: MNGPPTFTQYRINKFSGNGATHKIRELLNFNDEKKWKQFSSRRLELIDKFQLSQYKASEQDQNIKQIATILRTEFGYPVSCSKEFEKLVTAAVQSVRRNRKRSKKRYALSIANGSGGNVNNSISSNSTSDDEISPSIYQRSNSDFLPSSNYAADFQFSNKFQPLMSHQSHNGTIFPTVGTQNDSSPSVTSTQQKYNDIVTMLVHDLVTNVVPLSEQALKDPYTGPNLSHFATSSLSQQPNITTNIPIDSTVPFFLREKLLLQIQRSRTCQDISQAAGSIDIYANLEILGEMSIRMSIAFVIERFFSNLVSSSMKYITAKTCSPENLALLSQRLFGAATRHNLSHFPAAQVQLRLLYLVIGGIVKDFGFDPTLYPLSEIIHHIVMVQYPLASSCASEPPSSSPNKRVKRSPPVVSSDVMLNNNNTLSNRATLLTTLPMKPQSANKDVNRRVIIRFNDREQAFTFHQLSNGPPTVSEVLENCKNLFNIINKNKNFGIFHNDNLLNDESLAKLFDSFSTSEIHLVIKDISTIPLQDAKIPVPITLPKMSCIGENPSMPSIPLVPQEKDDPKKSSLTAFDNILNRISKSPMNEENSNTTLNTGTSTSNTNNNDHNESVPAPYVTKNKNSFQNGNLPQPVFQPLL
Assay: PBM E-score (8-mer binding enrichment) (E-score (-0.5 to 0.5)); higher = stronger / more preferred TF binding; most listed sequences are background and not binding sites
Conditions: protein concentration: 200 nM; construct: GST-full length
In short: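 Universal all-10-mer Agilent arrays, fresh or stripped once, were converted to double-stranded form by primer extension. GST-tagged yeast transcription factors from PURExpress in vitro transcription/translation, full-length or DNA-binding domain only, were applied at about 100-200 nM and detected with fluorescent anti-GST. After masliner normalisation, the Universal PBM Analysis Suite scored each ungapped eight-base word together with its reverse complement by E-score.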

Sequence	PBM E-score
ACACTCAA	0.185
GTTACGGA	-0.0079
GGCCCGAC	0.117
AACTCTTA	-0.0247
GACATCGA	-0.0724
CGCACCGC	0.107
ATCGAGGA	0.0625
ATGTATTA	0.152
GCTATACC	0.018
AGCACCTG	-0.171
CGCTCACC	0.081
ACCTGCCC	0.0405
AATGCCAA	0.00241
AACGGTCC	-0.263
AAACAAGC	-0.0656
GAGACAAC	0.125
AAAGCAGT	0.135
ACTCAGAA	0.0966
AGGTTAAT	-0.0678
AACGAGGG	0.0227
CTTATCTC	-0.129
CAGACCTG	-0.0881
GAGTGTCC	0.0875
AATAACCT	-0.11
AGGCATAC	0.0467

Sequence	PBM E-score
ACATTCAA	-0.0253
AGCTTACC	-0.199
CCATCATA	0.0955
GAGGTGAC	0.242
CGGAATGC	-0.0192
ACGTCACG	-0.153
AATGGCCC	-0.305
ACTCTCTG	0.108
ATTTGTTC	0.165
CGCACGCC	0.167
GGTCGTAA	-0.242
AAGGTGCG	-0.0754
CCGGGACA	-0.0176
GCTGTACC	-0.00431
AGGATTAG	0.0355
AGTATCTC	0.107
AAAACATA	-0.118
GACGGATC	-0.0953
AATACGTG	0.0623
GACTTTGC	-0.105
CCATTCCC	0.0713
CGTGAACG	-0.289
CTAGGATA	0.0079
ACGCTATG	-0.0962
AAAACGTA	0.00296

Sequence	PBM E-score
CGTTCACC	-0.0315
ATTGATTG	0.0691
GCTTTAAC	-0.104
ATAAATTG	0.256
ATCCAGGG	-0.0888
AGTCCGGG	0.103
CGTCGCCA	-0.168
CTGCCTAC	0.117
GGACCCAA	-0.0927
GCTATTCA	-0.0143
TAACCGTA	-0.122
CCCGCGCG	0.216
GAGAGAAA	-0.304
GCCAGCTA	-0.0877
CGGGTGAA	0.0779
GGCCGGAC	-0.117
ACGGCCGG	-0.0486
TAAGCGAA	0.0495
AATCTTGC	0.0371
ACATTTGA	0.0557
CATAGGCC	-0.0766
CTACATAA	-0.204
GTTGCAAC	-0.0673
TATAACCA	0.17
CTAAAGTC	-0.165

Sequence	PBM E-score
CCTGGAGC	-0.0438
ACTATTAC	0.0484
TAATTAGA	-0.21
AATGCCGG	-0.22
ACACGTTC	-0.0702
TGACATCA	0.0259
ACCATCGA	0.0778
GTCAGCAA	0.0775
AGCCATTA	0.101
AAGAAACC	0.0271
AAAAATAT	-0.122
GCGATCAC	0.154
AAGAGCTA	-0.0476
CTTGGCGA	-0.192
AGACCAAC	0.0107
CAAGGATG	-0.0593
GGCTCAAA	-0.178
CCAACCTC	0.098
ACTCGCCC	0.0982
CTGTACAC	-0.013
ACGTTCAC	-0.187
ACTATAGC	0.00988
CGGAAATC	-0.00291
CTCGACGC	0.0904
TAAGATTA	0.0418

Sequence	PBM E-score
CCAGATGG	0.033
CCATCTAC	0.0805
GGTAGGAC	-0.0932
AGGTCACG	-0.0701
ATATTAGC	0.0706
ATAGCGGC	-0.00437
CCTAGCAC	-0.177
AATGACAC	0.0353
CATAGAGA	0.0124
CCGGACAG	-0.0095
ACCACCGC	-0.0757
CAATTACA	0.135
AATGGCAA	-0.102
AGACGCTA	-0.205
CCCGCCTC	0.212
CCCGGAAG	-0.0845
ATGGCTCG	0.231
CAGCATGC	0.108
CGACAAGA	0.138
CTCACTCA	0.0981
TGCGCGCA	0.29
ATCCTTCC	-0.168
ATAGGGAA	-0.0981
GGCACTCA	-0.22
CGCAAAGA	0.0308

Sequence	PBM E-score
ATTAATGC	0.107
GAATGCAC	0.109
ACCCGCTC	-0.233
ATGGATCG	0.169
GCTGCTCA	-0.165
CACAAGAG	0.0643
AGAACTAC	-0.0664
CACCGCTG	0.0535
GAAGCCAA	-0.0844
AGCCCGGG	0.0967
AATCGCCC	-0.0276
AGGATCAT	0.059
GCGGGGTA	-0.06
TCGGACGA	-0.063
ACTAAAAT	-0.0643
AGCAACTG	0.00583
CTATTCCA	0.077
AATCCAGA	0.0151
ATGCGGCG	-0.0219
GTCCTGAA	-0.0879
AACTCGTG	0.15
AAACTGTT	-0.107
AACATTCT	-0.0607
CTGGACAC	-0.0232
CAGAAGAA	-0.164

Sequence	PBM E-score
TAGCAAGA	-0.0971
ATTTGGAC	-0.244
GCTACTAC	0.131
CGGTCATA	-0.0676
AAGCACGT	0.0424
TACAATGA	0.172
GGTGAGGA	0.00616
CTAAATAA	-0.192
GCAATCAA	-0.00069
CCGCGACA	0.0878
ATTACCCC	-0.0354
AGCTTCAC	-0.102
CTTATTCC	-0.129
CGGCGACC	-0.0736
TACCTGGA	0.117
AAAAGATC	-0.216
TGAAGTAA	-0.166
ACTTAACC	-0.155
GAGCTCCC	-0.0353
ATCAGGAG	0.0643
AGCGCCAC	-0.116
GTAGATCA	0.121
